{"source": "paper PMC12040169", "about": "(PLOS Biology, 2025)", "note": "The list shows a part of the results."}
{"system": "T1, C. trachomatis L2/434/Bu expressing GFP (CTL2-GFP)", "T1 construct": "L2/434/Bu GFP intracellular growth in HeLa cells", "set-up": "species or system HeLa; C. trachomatis total inclusion area by high-content imaging, normalised to DMSO", "conditions": "total inclusion area; 28.5 h, 10 µM; inhibitor", "summary_of_the_method": "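Following bulk GFP and resorufin fluorescence reads, infected cells were fixed, Hoechst-stained and imaged on a high-content platform. Inclusion total area and number per well served as growth proxies; nuclei counts indicated host viability. MICs were derived as for the fluorescence assay.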"}
{"molecule": "Oc1cc(C(F)(F)F)nc(CCc2ccc(Cl)cc2)n1", "note": "[CBK003678]", "% of control remaining": 86.3894}
{"molecule": "CS(=O)(=O)N1CC2(CCN(Cc3ccccc3F)CC2)c2ccccc21", "note": "[CBK084004]", "% of control remaining": 88.9057}
{"molecule": "Cc1ccc2c(c1)C1(CCN(C/C=C\\c3ccccc3)CC1)NC(=O)C2", "note": "[CBK040216]", "% of control remaining": 93.3134}
{"molecule": "C=CCN1C(=O)C2(CC(=O)N(CC(=O)N(C)C)C2=O)c2cc(OC)ccc21", "note": "(centres unmarked) [CBK075227]", "% of control remaining": 99.3116}
{"molecule": "COc1cccc(NC(=O)CC(CN2CCN(c3ccccc3)CC2)C(=O)O)c1", "note": "(centres unmarked) [CBK286789]", "% of control remaining": 107.043}
{"molecule": "Nc1cc(=O)[nH]c(=O)n1CCc1ccccc1", "note": "[CBK269984]", "% of control remaining": 87.6937}
{"molecule": "Cc1nc2ccc(NC(=O)N3CCC(c4ccccc4)C3)cc2s1", "note": "(centres unmarked) [CBK266512]", "% of control remaining": 97.858}
{"molecule": "COc1ccc2[nH]c3c(c2c1)CCN(CCc1ccc(F)cc1)C3", "note": "[CBK082819T]", "% of control remaining": 92.7737}
{"molecule": "CC(C)N1CCC(N(C)Cc2nc3ccccc3[nH]2)CC1", "note": "[CBK283021]", "% of control remaining": 102.954}
{"molecule": "CN1CCC(N(C)C(=O)NCc2ccc(Cl)c(Cl)c2)C1", "note": "(centres unmarked) [CBK155996]", "% of control remaining": 94.1618}
{"molecule": "CC(=O)NCC(=O)N1CCC2(C/C=C/CNC(=O)c3ccccc3OCCNC2=O)CC1", "note": "[CBK292006]", "% of control remaining": 129.096}
{"molecule": "CC1(C#N)CCCN(Cc2c[nH]nc2C(=O)O)C1", "note": "(centres unmarked) [CBK307010]", "% of control remaining": 41.0523}
{"molecule": "COc1ccccc1C(=O)Nc1ccc(Cl)c(C(=O)O)c1", "note": "[CBK287034]", "% of control remaining": 73.9386}
{"molecule": "COc1ccc(/C=C/C2=CCN(C)CC2)cc1Cn1cccn1", "note": "[CBK283859]", "% of control remaining": 100.899}
{"molecule": "O=C(O)CCn1cc(Br)c([N+](=O)[O-])n1", "note": "[CBK286916]", "% of control remaining": 113.429}
{"molecule": "N#Cc1ccc(S(=O)(=O)N2CCC(OCc3ccncc3)C2)cn1", "note": "(centres unmarked) [CBK305478]", "% of control remaining": 94.3507}
{"molecule": "O=C1C2(c3ccccc3)CN(CCCO)CC1(c1ccccc1)CN(CCCO)C2", "note": "[CBK265912]", "% of control remaining": 83.0998}
{"molecule": "O=C(NC1CCCCC1)c1csc(-c2ccncc2)n1", "note": "[CBK288591]", "% of control remaining": 117.895}
{"molecule": "OCCCNc1cc(Nc2ccccc2)n2nccc2n1", "note": "[CBK037078]", "% of control remaining": 114.361}
{"molecule": "CC(C)(N)CNC(=O)c1cc(C(C)(C)C)nn1Cc1ccc(Cl)cc1Cl", "note": "[CBK107296]", "% of control remaining": 28.1905}
{"molecule": "CCN(C)c1c(C)nc2c(OCc3ccccc3C(=O)OC)cccn12", "note": "[CBK147321]", "% of control remaining": 85.0797}
{"molecule": "COc1ccc(O)c(-c2c(-c3ccc(C)cc3)n[nH]c2C)c1", "note": "[CBK287961]", "% of control remaining": 123.758}
{"molecule": "CCNc1cncc(-c2ccccc2)n1", "note": "[CBK065847]", "% of control remaining": 120.349}
